In PubChem BioAssay AID651568 (National Center for Advancing Translational Sciences (NCATS), 2012):
The campaign covered roughly 1,200 compounds. About 55 (5%) were called active. Inconclusive results (about 15%) are left out. Calls follow the shape of the dose curve; as a rule, active = well fitted inhibition curve with a large enough effect; inconclusive = small, poorly fitted or top-dose-only effect; inactive = no such curve, though single readings can be large or run the other way. Some of the results follow.

experiment: qHTS Assay to Find Inhibitors of Chronic Active B-Cell Receptor Signaling: Hit Validation in Renilla Reporter Assay; conditions: TMD8 IkB-Renilla luciferase reporter, NF-kB signaling; series mostly up to 57.5 µM; activity change, negative = inhibition: at the top concentration; also: nearly all actives have a fitted effect of over 70% in size
Method in brief: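 Orthogonal secondary test of primary-screen hits in ABC-DLBCL cells carrying constitutively expressed IkB-Photinus and Renilla luciferase reporters, read by Dual-Glo luminescence; luciferases differ from the primary assay's click beetle enzymes, to exclude assay-specific artifacts.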
% is scaled to controls: 0 for no effect and ±100 for the full control effect; potency is read from the fitted curve at half-maximal effect.

SMILES	activity change, negative = inhibition	Potency
C=CCOc1c(Cl)cc(C(=S)N2CCCC2)cc1OCC	inactive: 14%	
COc1cc(/C=C/c2ccc3cccc(O)c3n2)cc(Br)c1OC	inactive: -19.6%	
Cc1ccc(C(=O)Nc2nc(C)c(C(=O)Nc3ccc4c(c3)CCC4)s2)cc1	inactive: -1.48%	
O=C(CSc1cccc[n+]1[O-])c1ccc(-c2ccccc2)cc1	inactive: -2.81%	
Cc1ccc(C#N)c(SCc2ccccc2F)n1	inactive: 9.28%	
CCC1=Nc2cc(C(=O)NCc3ccco3)ccc2Sc2ccccc21	inactive: 1.17%	
COc1ccc(N2C(=O)CS/C2=N\C(=S)Nc2ccccc2)cc1	inactive: 9.1%	
C=CCn1c(O)c(N=NC(=S)Nc2ccccc2C)c2cc(S(=O)(=O)N3CCOCC3)ccc21	inactive: -8.41%	
COc1cc(C(=O)Nc2nc(C)c(Cc3ccc4c(c3)OCO4)s2)cc(OC)c1OC	inactive: -7.31%	
CCc1ccc(/C=N/NC(=O)c2cc(-c3ccncc3)nc3ccccc23)s1	inactive: -16.3%	
COc1ccc(CNC(=O)COc2ccc(C(=O)c3ccc(F)cc3)cc2)cc1	inactive: -1.12%	
C=CCNC(=S)N/N=C/c1ccc(C)s1	inactive: -0.875%	
Cc1ccc(/C=N/NC(=O)c2n[nH]c3c2CCCC3)cc1	inactive: -10.8%	
COc1ccc(OC)c(C2CC(=O)Nc3n[nH]c(-c4ccccc4)c32)c1 (stereo unspecified)	inactive: 0.477%	
COc1ccc2c(c1)C(C)=CC(C)(C)N2S(=O)(=O)c1ccc(NC(C)=O)cc1	inactive: 1.54%	
CCOC(=O)C1CCN(C(=O)CSc2cc(=O)n(CC)c3ccccc23)CC1	inactive: 4.83%	
Oc1ccc(Nc2nc(-c3cccnc3)cs2)cc1	inactive: -8.48%	
COc1ccccc1N1CCN(Cc2ccc(O)c3ncccc23)CC1	inactive: -19.9%	
COc1ccccc1-c1noc(CSc2nc(N)cc(=O)[nH]2)n1	inactive: -1.85%	
Cc1nc2ccc(S(=O)(=O)Nc3cccc(-c4nc5cccnc5s4)c3)cc2s1	inactive: 44.4%	
COc1cc(C(=O)N/N=C/c2ccsc2C)cc(OC)c1OC	inactive: -11.3%	
COc1cc(/C=N/NC(=S)Nc2cccnc2)cc(OC)c1OC	inactive: 1.2%	

SMILES	activity change, negative = inhibition	Potency
CC(O)c1cccc(-c2ccc(CN3C[C@]4(CO)O[C@@H](CO)C[C@@H]4S3(=O)=O)cc2)c1 (stereo partly specified)	inactive: 0.336%	
CCOc1ccc(S(=O)(=O)N2c3ccccc3CC2C)cc1 (stereo unspecified)	inactive: 1.08%	
COc1ccc(/C(C)=N/Nc2ccc(C(=O)O)cc2)cc1OC	inactive: 7.67%	
CCc1ccc(S(=O)(=O)Nc2ccc(-c3ccc4nnc(C)n4n3)cc2)s1	inactive: 37.8%	
CC1=NN(C(N)=S)C(=O)C1N=Nc1cccc(C)c1 (stereo unspecified)	inactive: -13.2%	
COc1ccc(C2=NOC(C(=O)NCc3ccc(F)cc3)C2)cc1 (stereo unspecified)	inactive: -6.43%	
CCOc1cc(/C=N/O)ccc1OCc1ccccc1F	inactive: 1.23%	
COc1ccc(/C=C/C(=O)c2cc(F)ccc2OC(=O)c2ccccc2C)cc1OC		active: 13.5 µM
CCOC(=O)N1CCN(S(=O)(=O)c2ccc(C(=O)Nc3ccc(F)cc3F)cc2)CC1	inactive: -5.11%	
COc1ccc(-c2cnnn2-c2ccc(N)cc2)cc1OC	inactive: 1.69%	
COc1cc(OC)c(OC)cc1/C=C/C(=O)c1ccc(NS(=O)(=O)c2ccc(C)cc2)cc1	inactive: -16.9%	
O=C(Oc1ccc(Cl)c2cccnc12)C12CC3CC(CC(C3)C1)C2	inactive: -1.45%	
COc1ccc(C=O)cc1OS(=O)(=O)c1ccc(NC(C)=O)cc1	inactive: 3.37%	
CCCSc1nc(=O)n2cccc(C)c2n1	inactive: -10.4%	
N#CC1=C2SCC(O)(c3ccccc3)N2C(=O)CC1c1ccccc1 (stereo unspecified)	inactive: -28.9%	
COc1ccc(NC(=O)C2CCCN2S(=O)(=O)c2cccc3cccnc23)cc1OC (stereo unspecified)	inactive: 2.24%	
CCOC(=O)C(C)/C(C)=N/NC(N)=S (stereo unspecified)	inactive: -2.05%	
CCN(C(=O)COC(=O)c1cc([N+](=O)[O-])ccc1N1CCOCC1)c1ccccc1	inactive: -5.41%	
CNC(=O)[C@H]1O[C@@H](n2cnc3c(NCc4cccc(I)c4)ncnc32)[C@H](O)[C@@H]1O	inactive: -6.32%	
C[C@]12CC[C@H]3C(=CCc4cc(O)ccc43)[C@@H]1CCC2=O	inactive: -24.3%	
CCOCCOC(=O)c1[nH]c2c(c1C)C(=O)CC(c1ccccc1)C2 (stereo unspecified)	inactive: 0.538%	
COc1ccc(OC)c(Nc2c3c(nc4ccccc24)CCC3)c1	inactive: -24.8%	

SMILES	activity change, negative = inhibition	Potency
COC(=O)c1cn(C(=O)c2ccc(OC)cc2)c2ccccc12	inactive: -0.417%	
CCn1c(SCC(=O)c2ccc(Cl)cc2)nnc1C(C)C	inactive: -4.83%	
COc1ccc(S(=O)(=O)Nc2ccc3c(c2)n(C)c(=O)n3C)cc1F	inactive: 18.8%	
Cc1ccc(C(=O)c2cc([N+](=O)[O-])ccc2N2CCCCC2)c(C)c1	inactive: -15.6%	
O=C(Cc1ccc(-n2c(=O)c3ccccc3n(Cc3ccccc3Cl)c2=O)cc1)NCC1CCCO1 (stereo unspecified)	inactive: -0.0877%	
O=C(COc1ccc(Oc2ccccc2)cc1)NCc1cn2ccccc2n1	inactive: 6.84%	
COc1ccc(/C(C)=N/Nc2ncc(Cl)cc2Cl)c(O)c1	inactive: -0.249%	
Cc1ccc(S(=O)(=O)N2CCN(C(=O)CSc3n[nH]c(N)n3)CC2)c(C)c1	inactive: -2.9%	
CCC(C)N(C(=O)COC(=O)c1cc([N+](=O)[O-])ccc1N1CCOCC1)C1CCS(=O)(=O)C1 (stereo unspecified)	inactive: 2.51%	
Cc1ccc(NS(=O)(=O)c2ccc(-c3cnc(C4CC4)o3)cc2)c(C)c1	inactive: 5.35%	
Cc1noc(C)c1COc1ccc(CC(=O)NCc2ccccc2)cc1	inactive: -14%	
Cc1ccc(C#N)c(SCc2ccccc2[N+](=O)[O-])n1	inactive: 2.11%	
CC(NC(=O)c1ccc(S(=O)(=O)NCc2ccco2)cc1)c1ccc(F)cc1 (stereo unspecified)	inactive: 23.2%	
Cn1c(=O)n(Cc2ccccc2Cl)c2ccccc21	inactive: 7.35%	
COc1ccccc1NC(=O)Cn1nnc(C(=O)NCc2cccs2)c1N	inactive: 5.14%	
COC(=O)C1=CN(Cc2ccc(OC)c(OC)c2)C=C(C(=O)OC)C1c1cccc(O)c1	inactive: 2.18%	
NC(=O)c1c(NC(=O)CSc2nc(N)cc(=O)[nH]2)sc2c1CCCC2	inactive: -13.8%	
CC(=O)[C@H]1CC[C@H]2[C@@H]3C[C@H](C)C4=CC(=O)CC[C@]4(C)[C@H]3[C@@H](O)C[C@]12C	inactive: -2.35%	
CCC(=O)Nc1nonc1-c1nc2ccccc2n1Cc1cccc2ccccc12	inactive: -1.91%	
COc1ccc(-c2noc(CSc3nc(N)c(-c4ccccc4)c(=O)[nH]3)n2)cc1OC	inactive: -12.8%	
Cc1ccc(Oc2ccc(-c3nc(N)nc(N)n3)cc2)cc1C	inactive: -28.8%	
CCCC(=O)OCCNc1cc(Sc2nccn2C)c2nonc2c1[N+](=O)[O-]		active: 3.79 µM

SMILES	activity change, negative = inhibition	Potency
C=CCn1c(SCC(=O)Nc2cccc(S(N)(=O)=O)c2)nc2sc(C)c(C)c2c1=O	inactive: 5.08%	
Cc1cccc(NS(=O)(=O)c2ccc(C3CCCCC3)cc2)n1		active: 13.5 µM
CCOc1cc(C(=O)N(C)CC(=O)Nc2cccc3ccccc23)ccc1OC	inactive: -0.768%	
CNC(=S)N/N=C(\C)c1ccc2c(c1)OCCO2	inactive: -1.41%	
COc1cc(C2C(C#N)=C(N)Oc3cc(N)ccc32)cc(OC)c1OC (stereo unspecified)	inactive: -28.5%	
Cc1cc(=O)oc2cc(OCC3CC(c4ccccc4Cl)=NO3)ccc12 (stereo unspecified)	inactive: -6.64%	
CNC(=S)N/N=C/c1ccco1	inactive: 3.29%	
CNC(=S)N/N=C(\C)c1ccc(Cl)c(Cl)c1	inactive: 7.41%	
COc1cccc(-c2nnc(SCC(=O)Nc3cc(C)on3)o2)c1	inactive: 4.37%	
COc1ccc(/C=C/C(=O)Nc2cc(S(=O)(=O)N3CCOCC3)ccc2OC)cc1	inactive: -11%	
COc1ccccc1CNS(=O)(=O)c1ccc(-c2cnc(C3CC3)o2)cc1	inactive: 23.8%	
Nc1cc(=O)[nH]c(SCC(=O)Nc2cc(Cl)cc(Cl)c2)n1	inactive: 19%	
C[C@]12C=CC(=O)C=C1CC[C@@H]1[C@@H]2[C@@H](O)C[C@@]2(C)[C@H]1CC[C@]2(O)C(=O)COC(=O)CCC(=O)O	inactive: 4.63%	
COc1ccc(/C=N\NC(=O)c2c(C)nc3ccc(Br)cn23)cc1	inactive: -14.5%	
Cc1cc(C)c2nc(SCC(=O)N3CC(=O)Nc4ccccc43)c(C#N)cc2c1	inactive: -6.04%	
COc1cc(OC)cc(C(=O)N/N=C(\C)CC(=O)Nc2ccccn2)c1	inactive: -4.71%	
COc1ccc(NCC(=O)n2c(C)c(C)c3ccccc32)cc1	inactive: 3.6%	
COc1ccccc1-n1cnc2cc(NCc3cccs3)ccc21	inactive: 1.53%	
Cc1cc(C)nc(SCc2ccc(C(=O)N/N=C/c3cccnc3)cc2)n1	inactive: 4.12%	
COc1ccc(S(=O)(=O)N2CCCCC2)cc1NC(=O)c1ccc(OC)c(OC)c1	inactive: 3.52%	
COc1cc2c(cc1OC)-c1cc(NC3CCCCC3)nc(=O)n1CC2	inactive: -8.08%	
O=C(COC(=O)Cc1ccc(-c2ccccc2)cc1)NCc1ccccc1	inactive: 0.885%	

SMILES	activity change, negative = inhibition	Potency
CCOc1ccc(NC(=O)c2cc(OC)nc3ccccc23)cc1	inactive: -0.0858%	
COc1cccc(/C=C/C(=O)Nc2cc(S(=O)(=O)N3CCOCC3)ccc2OC)c1	inactive: 1.3%	
CC(C)(C)NNC(=S)Nc1cccc(F)c1	inactive: 4.4%	
Cc1ccc(-c2ccccc2NC(=O)CS(=O)CC(=O)Nc2ccc(C)c(Cl)c2)o1 (stereo unspecified)	inactive: 14.6%	
COc1ccc(/C(C)=N/Nc2nc3ccccc3nc2C)cc1OC	inactive: -3.76%	
O=C(COc1ccccc1-c1ccccc1)N/N=C/c1ccc2ccccc2c1	inactive: -0.205%	
CCOc1ccccc1/C=N/Nc1nc2c(N)ncnc2n1[C@H]1O[C@@H](CO)[C@H](O)[C@@H]1O	inactive: -7.31%	
O=C(CN1CCCc2ccccc21)N/N=C/c1ccccc1O	inactive: 8.8%	
CCCCC(=O)O[C@]1(C(=O)CO)CC[C@H]2[C@@H]3CCC4=CC(=O)CC[C@]4(C)[C@H]3[C@@H](O)C[C@@]21C	inactive: -1.63%	
Cc1cccc(OCCCC(=O)NNC(=O)c2cccc(N(C)C)c2)c1	inactive: 9.82%	
CCOc1ccc2nc(NS(=O)(=O)Cc3ccccc3)sc2c1	inactive: -25.9%	
Cc1nc2c(C(F)(F)F)cccc2c2c1CCS2	inactive: -5.86%	
COc1ccc(/C=C/c2ccncc2)cc1OC	inactive: 1.23%	
C=CCNC(=S)N/N=C/c1ccc(C(C)(C)C)cc1	inactive: -3.61%	
Cc1ccc(NC(=S)NNC(C)(C)C)cc1	inactive: 17.6%	
COc1cc2c(cc1OC)C(c1cc(C)ccc1C)CC(=O)N2 (stereo unspecified)	inactive: 3.36%	
N#CC(C(=S)Nc1ccccc1)c1nc2ccccc2[nH]1 (stereo unspecified)	inactive: -4.69%	
CC1=Nc2cc(C(=O)NCCCOC(C)C)ccc2Sc2ccc(C)cc21	inactive: 20.7%	
